Assay results: PubChem BioAssay AID1508623 (National Center for Advancing Translational Sciences (NCATS), 2021)
The campaign covered roughly 48,000 compounds. About 450 (0.94%) were called active. Another 19% or so got no clear call; they are omitted. The call rests on the fitted dose curve; in most records, active means well fitted inhibition curve with a large enough effect; inconclusive means small, poorly fitted or top-dose-only effect; inactive means no such curve, though single readings can be large or run the other way. The list shows a part of the results.

Assay: Primary qHTS for Identification of Small Molecule Inhibitors of Huntingtin Promoter Activity; further: nearly all actives have a fitted effect of over 50% in size
Conditions: HEK293 HTT promoter firefly luciferase reporter (activity 0% = vehicle and -100% = no light), 24 h; series mostly up to 57.5 µM; activity change, negative = inhibition: at the top concentration
In short: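 Firefly luciferase readout (Dual-Glo, 10 min RT) after 24 h, 37 °C compound exposure (final up to 57.5 uM) of HEK293 reporter cells cultured 24 h beforehand; PTC124 at 50 uM final as control inhibitor; activity scaled vehicle 0%, zero RLU -100%.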

Activity change, negative = inhibition, inactive:
CCC1CN(C(=O)N2CCC(C(=O)NCCc3ccc(C)cc3)CC2)c2ccccc2O1 (stereo not drawn) -26.9%
CCOCCCNC(=O)CCC(=O)NNc1nc2ccccc2c2nc(-c3ccccc3)nn12 -4.72%
Cc1oc(-c2ccccc2)nc1CSc1nnc(C)n2c1cc1sccc12 -4.83%
O=C(CCc1nnc2n(Cc3ccccc3Cl)c(=O)c3ccccc3n12)Nc1ccc(F)c(F)c1 0.666%
Cc1ccc(-n2nc(CO)c(C(=O)NCC(c3ccccc3)c3ccccc3)n2)cc1 6.55%
CCOC(=O)N1CCc2c(sc3c2c(=O)n(CCc2ccccc2)c(=O)n3CC(=O)Nc2ccccc2C)C1 -9.88%
COC(=O)c1cc2sccc2n1Cc1c(C)cc(C)cc1C 0.734%
O=C(c1cccc(Cl)c1)N(Cc1cccc(F)c1)C1CCS(=O)(=O)C1 (stereo not drawn) 1.62%
CCCN1CCN(CCCNC(=O)c2cc3c(s2)-c2c(C)cccc2OC3)CC1 -27.8%
Cc1ccc(NC(=O)C2CCN(C(=O)c3sc4nc[nH]c(=O)c4c3C)CC2)cc1F 0.635%
CCOc1cccc(C(=O)N(Cc2ccc(C(C)C)cc2)C2CCS(=O)(=O)C2)c1 (stereo not drawn) -25%
Cc1ccc(C)c(OCCCC(C)(C)C(=O)O)c1
COc1ccccc1C(=O)Nc1ccccc1OCc1cc(=O)n2cc(C)sc2n1 3.1%
CCN1C(=O)C(Cc2nc3ccccc3c(=O)n2-c2cccc(C)c2)c2ccccc21 (stereo not drawn) -17%
CC(C)Oc1ccc(C(=O)NCCc2csc(-c3cccc(F)c3)n2)cc1 -31.9%
Cc1ccc(-c2noc(-c3ccccc3OCC(=O)Nc3ccccc3[N+](=O)[O-])n2)cc1 11.1%
O=C(Nc1ncc(Cc2ccc(F)cc2)s1)c1ccc2c(c1)CC(c1ccccc1)OC2=O (stereo not drawn) -10.6%
CCCC(=O)N1c2nc(-c3ccco3)nn2C2(CCCCC2)[C@@H]2CCCC[C@@H]21 -12.3%
COc1cccc(NC(=O)Cn2c(=O)n(-c3ccc(C)cc3)c(=O)c3ccccc32)c1 -22.2%
Cc1nn(C)c2c1c(C(F)(F)F)cc(=O)n2CC(=O)Nc1ccc(F)cc1F -29.7%
Cc1nnc(N2CCC(C(=O)NC3CCC(C)CC3)CC2)c2nn(-c3ccc(Cl)cc3)c(C)c12 (stereo not drawn) -12.1%
Cc1ccccc1NC(=O)CSc1nccn1C -21.6%
Cc1cccc(N(C)C(=O)Cn2cnc3nc4c(cc3c2=O)CCCC4)c1 -26.7%
Cc1cc(Cl)ccc1NC(=O)C1CCCN(c2nnc(C)c3c(C)n(-c4ccccc4)nc23)C1 (stereo not drawn) -7.08%
COc1cccc(N2CC(NC(=O)c3cccs3)CC2=O)c1 (stereo not drawn) -21.7%
O=C(O)C(=O)Nc1cccc(-c2nn[nH]n2)c1 -4.11%
Cc1cc(C)c(NC(=O)C(C)n2nc(C)c3sc4ccccc4c3c2=O)c(C)c1 (stereo not drawn) -15%
CC(CCc1ccccc1)NC(=O)CSc1n[nH]c(-c2ccccc2Cl)n1 (stereo not drawn) -12.8%
COc1ccc(OC(=O)c2cn(-c3cccc(OC)c3)c(=O)c3ccccc23)cc1 -19.8%
Cc1ccc(OC(C)C(=O)N2CCN(CCc3ccccn3)CC2)cc1C (stereo not drawn) -11.5%
O=S(=O)(NCC(c1ccco1)S(=O)(=O)c1cccs1)c1ccccc1 (stereo not drawn) -9.92%
Cc1cccc(OCC(=O)Nc2ccc3nc(SCc4ccccc4)sc3c2)c1 -4.93%
Cc1nc2ccccc2n1CCc1nc2c3ccccc3nc(SCc3ccccc3F)n2n1 0%
CCc1ccc(CNC(=O)c2ccc(Cn3c(=O)c4cccn4c4cccnc43)cc2)cc1 0.277%
CCCc1nnc(NC(=O)CSc2nnc3c4ccccc4n(CC)c3n2)s1 -2.93%
CCc1cccc(C)c1NC(=O)c1cc(CN2CCCC2)on1 5.9%
CC(C)NC(=O)C1CCCN(S(=O)(=O)c2ccc3c(ccn3C)c2)C1 (stereo not drawn) 0.758%
COCCn1c(C)cc(O)c(C(c2cccc(F)c2)N2CCN(c3ccccc3)CC2)c1=O (stereo not drawn) -13.2%
CCOc1ccc(C(=O)N2CC(=O)Nc3ccc(F)cc3C2c2ccc(F)cc2)cc1 (stereo not drawn) -17.4%
COc1cc(C(=O)N2CCCCCCC2)cc(OC)c1OC 6.58%
COc1ccc(-c2oc3ncn4nc(COc5ccc(Cl)cc5)nc4c3c2-c2ccc(OC)cc2)cc1 -4.09%
CCc1nnc2c(Nc3cc(OC)c(Cl)cc3OC)nc3ccccc3n12 -7.37%
O=C(Nc1ccc2oc(-c3cccc4c(Br)cccc34)nc2c1)c1cccc(Cl)c1 -8.96%
CC(C)(C)C1CCc2c(sc(NC(=O)c3cc(-c4ccc(F)cc4)on3)c2C#N)C1 (stereo not drawn) 15.4%
Cc1cc(C)cc(-n2ccn3cnnc3c2=O)c1 -6.33%
CCC(C(=O)NCCc1ccc(OC)c(OC)c1)n1nc(C)c2sc3ccccc3c2c1=O (stereo not drawn) -29.9%
CCCN(c1ccccc1F)S(=O)(=O)c1cc(-c2cc(C)no2)ccc1C -28.8%
Cn1cc(C=CC(=O)c2cccc(F)c2)cc1C=CC(=O)NO 33.1%
CSc1cccc(Nc2cc(C(=O)NC3CCCCC3)c3ccccc3n2)c1 -30%
COc1cc2c(cc1OC)[C@@H]1Cc3ccc(OC)c(OC)c3CN1CC2 -5.03%
CCc1ccc2occ(CC(=O)Nc3c(C(=O)c4ccc(F)cc4)oc4ccccc34)c2c1 -18%
CCCCCCSc1nc(N)c2c3c(sc2n1)CCCC3C (stereo not drawn) 38.8%
Cn1nc(-c2ccccc2)c(-c2ccccc2)c(C(=O)Nc2ccccc2C(N)=O)c1=O -18.4%
CN(C)c1ccc(-c2nc3ccc(Cl)cn3c2Nc2ccc3c(c2)OCCO3)cc1 34.1%
CCCN(CCC)c1cc(C)nc2nc(-c3ccc(C(C)(C)C)cc3)nn12 -14.8%
Cc1cc(C)cc(N2C(=O)CSC23C(=O)N(CC(N)=O)c2ccccc23)c1 (stereo not drawn) 8.64%
Cc1ccc(C)c(N2CCN(C3(c4ccccc4)C(=O)c4ccccc4C3=O)CC2)c1 -25.9%
CCOCCCNC(=O)Cn1ncc2c([nH]c3ccc(C)cc32)c1=O 3.1%
COCCN(Cc1ccc(C)c(Br)c1)S(=O)(=O)c1ccc2[nH]c(=O)ccc2c1 -28.3%
CCOC(=O)c1ccc(NC(=O)c2cc(=O)c3ccc(C)c(C)c3o2)cc1 -11.4%
COCCn1c(C)cc(O)c(C(c2ccccc2)N2CCCCC2)c1=O (stereo not drawn) -11.4%
Cc1ccc(-n2ncc3c(Nc4ccc(Oc5ccccc5)cc4)ncnc32)cc1 -6.35%
Cc1c(C(=O)Nc2cccc(C(F)(F)F)c2)sc2nc3n(c(=O)c12)CCC3 -16.9%
Cc1cccc(Cn2cc3c(=O)n(CC(=O)Nc4cccc(C)c4C)nc-3c3cc(F)ccc32)c1 -7.59%
CC(C)Cc1nn2c(=O)cc(COC(=O)c3cccc(NC(=O)c4ccccc4)c3)nc2s1 -9.66%
COc1ccc(NC(=O)c2cc(C3CC3)nc3c2c(C)nn3-c2ccccc2)c(OC)c1 -11.9%
CCCN(CCC)CCNC(=O)c1cc2c(=O)oc3ccc(C)cc3c2s1 -23.4%
Cc1cccc(N2CCN(C(=O)c3cc4ccc5cccnc5c4[nH]3)CC2)c1C -19.6%
CCOCCCNC(=O)Cn1ncc2c([nH]c3ccccc32)c1=O 2.66%
Clc1ccccc1CNCCCSc1nnnn1-c1ccccc1 -11.2%
CCOc1ccc(/C=C/c2nc(C#N)c(NCc3ccc(OC)cc3)o2)cc1 -15.1%
COC(=O)c1ccc(NC(=O)C(=O)NCCc2csc3nc(-c4ccccc4F)nn23)cc1 17.6%
CCN(CC)S(=O)(=O)c1ccc2c(c1)N(CC(=O)Nc1cccc(C)c1C)C(=O)C1CCCN21 (stereo not drawn) -4.91%
O=C(CCCN1CCC(O)(c2ccc(Cl)cc2)CC1)c1ccc(F)cc1
COc1cccc(-c2noc(-c3cc4ccccc4oc3=O)n2)c1OC 30.2%
COc1cc(OC)c(NC(=O)C(CC(C)C)N2Cc3ccccc3C2=O)cc1Cl (stereo not drawn) -30.4%
CCOc1ccccc1NC(=O)CSc1cn(CC(=O)N2CCCCCC2)c2ccccc12 -4.08%
COc1ccc(C)cc1NC(=O)CSc1ncc2c(n1)-c1ccc(Cl)cc1N(Cc1ccccc1)S2(=O)=O -24.3%
Cc1ccc(NC(=O)CCN2C(=O)c3ccccc3Sc3ncccc32)cc1 -11.7%
CC1=C(C(=O)Nc2ccccc2)C(c2ccc(F)cc2)n2nc(SCc3cc(C)ccc3C)nc2N1 (stereo not drawn) -10.5%
COC(=O)c1ccc2c(c1)N(CC(=O)Nc1ccc(C)c(C)c1)C(=O)c1ccccc1S2 -18.8%
Cc1cc2oc(C(=O)Nc3sc4c(c3C(=O)NCC3CCCO3)CCCC4)cc(=O)c2cc1C (stereo not drawn) -18.6%
Cn1c(=O)c2c(-c3ccc(Cl)cc3)ccnc2n(C)c1=O 5.61%
COc1ccc(OC)c(CCNc2nc3cc(OC)c(OC)cc3c3nc(-c4cccnc4)nn23)c1 -0.624%
CCOc1ccccc1CNC(=O)CN1C(=O)c2cccnc2Oc2ccc(Cl)cc21 0.652%
COc1ccc(S(=O)(=O)N2CCCCC2)cc1C(=O)NC1CCS(=O)(=O)C1 (stereo not drawn) -15.4%
CCS(=O)(=O)N1CCC2(CC1)OC(=O)C(C)=C2C(=O)NCc1ccc(OC)c(OC)c1 -12.6%
COc1ccc(N2CCN(C(=O)c3cn(C)c4ccc(S(=O)(=O)N5CCOCC5)cc4c3=O)CC2)cc1 -18.7% [at 11.5 µM]
CCC1Oc2ccccc2N(CC(=O)NCc2ccccc2)C1=O (stereo not drawn) 6.48%
Cn1c(=O)c(=O)n(C)c2cc(N3CCCC3)c(NC(=O)c3ccccc3Cl)cc21 0.31%
CCn1c(=O)c2sccc2n2c(CCCC(=O)Nc3ccc(Oc4ccccc4)cc3)nnc12 -16.8%
CCOc1ccccc1CNC(=O)CN1C(=O)c2cccnc2Oc2ccc(C)cc21 -19%
NCC(=O)CCC(=O)O 13.1%
N[C@H](CSC(c1ccccc1)(c1ccccc1)c1ccccc1)C(=O)O -11.2%
COc1ccc(OC)c(NC(=O)N2CCC3(CC2)Oc2ccccc2C(=O)N3Cc2ccccc2F)c1 -28%
COc1ccc(-c2noc(CC(=O)N(C)c3cc(Cl)c(OC)cc3OC)n2)cc1 -26.5%
CCCCN(C)C(=O)c1ccc2c(c1)NC(=O)C(CC(C)C)N2 (stereo not drawn) -21%
CCN1C(=O)C2(c3ccccc31)c1c(oc3ccccc3c1=O)C(=O)N2CCOC (stereo not drawn) -18.9%
